In patent US20150330981:

Target: T1, HA PGC-1β (full-length mouse PGC-1β with HA tag) (UniProt Q8VHJ7)
T1 sequence: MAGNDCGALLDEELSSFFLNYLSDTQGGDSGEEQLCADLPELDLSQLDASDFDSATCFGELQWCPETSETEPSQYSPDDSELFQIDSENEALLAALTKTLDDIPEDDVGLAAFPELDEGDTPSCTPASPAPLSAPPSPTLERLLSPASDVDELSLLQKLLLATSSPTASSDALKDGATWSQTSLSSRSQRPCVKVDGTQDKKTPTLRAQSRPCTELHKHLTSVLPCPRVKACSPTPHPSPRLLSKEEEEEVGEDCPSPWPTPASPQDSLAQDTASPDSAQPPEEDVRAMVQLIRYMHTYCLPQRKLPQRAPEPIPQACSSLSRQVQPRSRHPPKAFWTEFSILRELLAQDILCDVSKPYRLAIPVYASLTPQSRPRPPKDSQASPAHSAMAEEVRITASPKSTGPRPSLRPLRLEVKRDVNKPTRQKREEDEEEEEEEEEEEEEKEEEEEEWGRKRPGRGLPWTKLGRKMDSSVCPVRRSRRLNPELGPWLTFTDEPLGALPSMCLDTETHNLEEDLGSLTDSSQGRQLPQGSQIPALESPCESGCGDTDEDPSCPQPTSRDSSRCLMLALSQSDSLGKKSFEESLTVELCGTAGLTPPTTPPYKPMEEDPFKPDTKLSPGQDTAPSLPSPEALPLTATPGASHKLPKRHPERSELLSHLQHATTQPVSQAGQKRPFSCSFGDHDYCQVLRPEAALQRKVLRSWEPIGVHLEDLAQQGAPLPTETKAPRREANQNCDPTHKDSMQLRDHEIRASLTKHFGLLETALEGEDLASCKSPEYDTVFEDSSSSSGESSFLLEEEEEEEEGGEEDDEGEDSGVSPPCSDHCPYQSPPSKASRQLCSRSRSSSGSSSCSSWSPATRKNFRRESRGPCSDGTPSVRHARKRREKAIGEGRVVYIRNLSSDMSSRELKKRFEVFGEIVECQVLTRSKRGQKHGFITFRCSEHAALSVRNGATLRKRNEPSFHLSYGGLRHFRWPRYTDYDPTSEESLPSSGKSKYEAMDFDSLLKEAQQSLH

synoviolin with FLAG tag (SYVN1/FLAG) (no sequence given)
half-life of PGC-1β (cycloheximide chase, MEF Syno-/-): the wild-type synoviolin (SYVN1 WT) has extremely shortened the half-life of PGC-1β
